In article PMC12820563:
The list shows a part of the results. The list includes weakly bound sequences.

Target: T1, MBP-FoxP3dN (UniProt Q99JB6)
T1 sequence: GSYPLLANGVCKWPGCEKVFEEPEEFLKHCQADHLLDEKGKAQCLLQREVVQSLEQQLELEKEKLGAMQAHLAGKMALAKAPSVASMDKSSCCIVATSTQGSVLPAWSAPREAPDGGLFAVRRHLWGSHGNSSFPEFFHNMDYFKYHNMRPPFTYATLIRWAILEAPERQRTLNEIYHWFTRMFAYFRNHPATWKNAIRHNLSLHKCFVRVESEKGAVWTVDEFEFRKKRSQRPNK
Assay: PD-seq (MBP pull-down with sequencing)
Settings: 20 mM Tris-HCl pH 7.5, 100 mM NaCl, 1.5 mM MgCl2, 0.4 uM protein, 0.1 uM dsDNA library, 30 min, room temperature, amylose pull-down; high values mean tight binding; double strand, one strand shown

Row | Sequence | binding signal (RPM ratio (pull-down/input))
1 | GATGATTGTTCTCCCAGCTGATGAATTGCTCGTCTCGAGTAAACAAATTTTCCTAATCTTTCTGTTCAAGCGCCATCTAC | 0.593
2 | GATGATTGTTCTCCCAGCTGATGAATTACGTAGGTCGAGTAAACAAATTTTCCTAATCTTTCTGTTCAAGCGCCATCTAC | 0.438
3 | GATGATTGTTCTCCCAGCTGATGAATTTCTTGCCTCGAGTAAACAAATTTTCCTAATCTTTCTGTTCAAGCGCCATCTAC | 0.494
4 | GATGATTGTTCTCCCAGCTGATGAATTCGTCTAATCGAGTAAACAAATTTTCCTAATCTTTCTGTTCAAGCGCCATCTAC | 0.424
5 | GATGATTGTTCTCCCAGCTGATGAATTATCACAGTCGAGTAAACAAATTTTCCTAATCTTTCTGTTCAAGCGCCATCTAC | 0.277
6 | GATGATTGTTCTCCCAGCTGATGAATTTATTGATTCGAGTAAACAAATTTTCCTAATCTTTCTGTTCAAGCGCCATCTAC | 5.78
7 | GATGATTGTTCTCCCAGCTGATGAATTCCCTCTTTCGAGTAAACAAATTTTCCTAATCTTTCTGTTCAAGCGCCATCTAC | 0.253
8 | GATGATTGTTCTCCCAGCTGATGAATTTACACCTTCGAGTAAACAAATTTTCCTAATCTTTCTGTTCAAGCGCCATCTAC | 0.678
9 | GATGATTGTTCTCCCAGCTGATGAATTTGGGAGATCGAGTAAACAAATTTTCCTAATCTTTCTGTTCAAGCGCCATCTAC | 0.242
10 | GATGATTGTTCTCCCAGCTGATGAATTACCGACTTCGAGTAAACAAATTTTCCTAATCTTTCTGTTCAAGCGCCATCTAC | 0.528
11 | GATGATTGTTCTCCCAGCTGATGAATTGTTTGAGTCGAGTAAACAAATTTTCCTAATCTTTCTGTTCAAGCGCCATCTAC | 1.16
12 | GATGATTGTTCTCCCAGCTGATGAATTGCGTTGCTCGAGTAAACAAATTTTCCTAATCTTTCTGTTCAAGCGCCATCTAC | 1.52
13 | GATGATTGTTCTCCCAGCTGATGAATTCGACTACTCGAGTAAACAAATTTTCCTAATCTTTCTGTTCAAGCGCCATCTAC | 0.49
14 | GATGATTGTTCTCCCAGCTGATGAATTTGCAAAATCGAGTAAACAAATTTTCCTAATCTTTCTGTTCAAGCGCCATCTAC | 0.356
15 | GATGATTGTTCTCCCAGCTGATGAATTGTACATGTCGAGTAAACAAATTTTCCTAATCTTTCTGTTCAAGCGCCATCTAC | 0.648
16 | GATGATTGTTCTCCCAGCTGATGAATTATTTCAATCGAGTAAACAAATTTTCCTAATCTTTCTGTTCAAGCGCCATCTAC | 0.326

Row | Sequence | binding signal (RPM ratio (pull-down/input))
17 | GATGATTGTTCTCCCAGCTGATGAATTCCCCGAGTCGAGTAAACAAATTTTCCTAATCTTTCTGTTCAAGCGCCATCTAC | 0.156
18 | GATGATTGTTCTCCCAGCTGATGAATTCGCCTGGTCGAGTAAACAAATTTTCCTAATCTTTCTGTTCAAGCGCCATCTAC | 0.542
19 | GATGATTGTTCTCCCAGCTGATGAATTTCACATTTCGAGTAAACAAATTTTCCTAATCTTTCTGTTCAAGCGCCATCTAC | 0.428
20 | GATGATTGTTCTCCCAGCTGATGAATTACCGGGCTCGAGTAAACAAATTTTCCTAATCTTTCTGTTCAAGCGCCATCTAC | 0.256
21 | GATGATTGTTCTCCCAGCTGATGAATTCTACATGTCGAGTAAACAAATTTTCCTAATCTTTCTGTTCAAGCGCCATCTAC | 0.448
22 | GATGATTGTTCTCCCAGCTGATGAATTTGGCCCTTCGAGTAAACAAATTTTCCTAATCTTTCTGTTCAAGCGCCATCTAC | 1
23 | GATGATTGTTCTCCCAGCTGATGAATTGGCTGTGTCGAGTAAACAAATTTTCCTAATCTTTCTGTTCAAGCGCCATCTAC | 1.25
24 | GATGATTGTTCTCCCAGCTGATGAATTGTCACTCTCGAGTAAACAAATTTTCCTAATCTTTCTGTTCAAGCGCCATCTAC | 0.72
25 | GATGATTGTTCTCCCAGCTGATGAATTACGTACTTCGAGTAAACAAATTTTCCTAATCTTTCTGTTCAAGCGCCATCTAC | 0.522
26 | GATGATTGTTCTCCCAGCTGATGAATTACTGTGATCGAGTAAACAAATTTTCCTAATCTTTCTGTTCAAGCGCCATCTAC | 0.49
27 | GATGATTGTTCTCCCAGCTGATGAATTTCATTGCTCGAGTAAACAAATTTTCCTAATCTTTCTGTTCAAGCGCCATCTAC | 0.894
28 | GATGATTGTTCTCCCAGCTGATGAATTAGCACACTCGAGTAAACAAATTTTCCTAATCTTTCTGTTCAAGCGCCATCTAC | 0.449
29 | GATGATTGTTCTCCCAGCTGATGAATTTCTCAGATCGAGTAAACAAATTTTCCTAATCTTTCTGTTCAAGCGCCATCTAC | 0.166
30 | GATGATTGTTCTCCCAGCTGATGAATTGGTCAAATCGAGTAAACAAATTTTCCTAATCTTTCTGTTCAAGCGCCATCTAC | 0.267
31 | GATGATTGTTCTCCCAGCTGATGAATTGGCAGTGTCGAGTAAACAAATTTTCCTAATCTTTCTGTTCAAGCGCCATCTAC | 0.535
32 | GATGATTGTTCTCCCAGCTGATGAATTCTCGAAGTCGAGTAAACAAATTTTCCTAATCTTTCTGTTCAAGCGCCATCTAC | 0.188
